# The campaign covered roughly 310,000 compounds. About 2,200 (0.71%) showed an effect of 50% or more. The effect is printed as a negative number. Some of the results follow.
# Biological target: human ether-à-go-go-related gene (hERG) potassium channel (human, UniProt Q12809)
# Assay: primary screen, population patch clamp on CHO cells stably expressing hERG
# Chain of human ether-à-go-go-related gene (hERG) potassium channel (Q12809 whole entry, looked up): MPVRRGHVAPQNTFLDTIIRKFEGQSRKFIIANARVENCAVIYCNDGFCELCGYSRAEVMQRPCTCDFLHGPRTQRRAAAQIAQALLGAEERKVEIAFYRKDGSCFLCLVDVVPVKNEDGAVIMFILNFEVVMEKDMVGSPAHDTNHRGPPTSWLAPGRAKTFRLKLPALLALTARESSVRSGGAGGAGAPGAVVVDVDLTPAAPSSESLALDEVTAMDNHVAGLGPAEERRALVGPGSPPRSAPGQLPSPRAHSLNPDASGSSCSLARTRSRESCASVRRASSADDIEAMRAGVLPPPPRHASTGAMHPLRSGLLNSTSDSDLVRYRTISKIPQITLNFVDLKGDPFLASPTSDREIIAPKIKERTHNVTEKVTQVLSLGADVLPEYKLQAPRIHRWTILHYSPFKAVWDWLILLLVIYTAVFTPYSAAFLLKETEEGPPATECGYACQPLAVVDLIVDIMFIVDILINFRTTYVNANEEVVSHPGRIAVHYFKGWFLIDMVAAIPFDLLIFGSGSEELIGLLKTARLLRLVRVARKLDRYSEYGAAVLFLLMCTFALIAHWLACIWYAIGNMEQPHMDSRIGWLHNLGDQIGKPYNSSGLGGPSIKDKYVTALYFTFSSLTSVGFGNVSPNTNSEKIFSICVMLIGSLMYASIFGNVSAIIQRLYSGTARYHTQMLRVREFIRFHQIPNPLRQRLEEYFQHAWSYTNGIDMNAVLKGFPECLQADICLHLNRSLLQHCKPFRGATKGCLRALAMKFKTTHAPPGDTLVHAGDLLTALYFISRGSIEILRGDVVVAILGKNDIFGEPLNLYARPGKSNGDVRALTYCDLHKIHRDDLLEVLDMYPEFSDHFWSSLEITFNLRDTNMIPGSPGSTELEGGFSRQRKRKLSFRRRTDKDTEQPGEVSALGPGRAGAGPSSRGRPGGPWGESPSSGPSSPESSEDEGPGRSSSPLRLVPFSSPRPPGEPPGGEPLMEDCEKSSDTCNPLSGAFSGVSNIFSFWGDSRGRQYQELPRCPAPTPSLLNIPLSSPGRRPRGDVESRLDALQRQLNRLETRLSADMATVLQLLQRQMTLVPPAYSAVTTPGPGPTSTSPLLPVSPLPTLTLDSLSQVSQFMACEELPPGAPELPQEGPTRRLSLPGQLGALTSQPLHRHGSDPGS
row,Structure (SMILES),"hERG current change (%, negative = inhibition) at 1uM"
1,O=C(COc1ccc(Cl)cc1)Nc1nnc(-c2ccc3c(c2)CCCC3)o1,15.8%
2,O=C(NC1CCN(C(=O)NCc2ccccc2)CC1)c1cccc(F)c1,11.3%
3,C/C(=N\Nc1c([N+](=O)[O-])c(C)nn1C)c1ccc(F)cc1F,10.3%
4,C/C(=N\N1CCCCC1c1cccnc1)c1c(O)n(C2CCCCC2)c(=S)[nH]c1=O (centres unmarked),7.92%
5,O=[N+]([O-])c1cccc(-c2ccc(/C=N/Nc3nc(N4CCCCC4)nc(N4CCCCC4)n3)o2)c1,8.37%
6,O=C(NCc1ccc(Cl)cc1)C1CCC(=O)N(C2CCCCCC2)C1 (centres unmarked),6.46%
7,COc1ccc(Cc2noc(CN3CCNC(=O)CC3)n2)cc1OC,9.84%
8,CC(C)C(Nc1ncnc2c1oc1ccccc12)C(=O)O (centres unmarked),-4.03%
9,CCOC(=O)c1c(SC)[nH]c2c(Cl)cccc2c1=O,9.9%
10,COc1ccc(C)cc1NC(=O)CN(Cc1nnc(-c2ccc(Cl)cc2)o1)C1CCCC1,3.28%
11,CCCCCCn1cc(C(=O)O)c(=O)c2ccccc21,-84.4%
12,O=C(CSCc1ccc(Cl)cc1)NCC1CCCO1 (centres unmarked),-2.31%
13,CCOC(=O)C1CNc2cc(S(=O)(=O)CC)ccc2O1 (centres unmarked),-2.32%
14,Cl.c1ccc(Nc2nc(NCc3ccco3)c3ccccc3n2)cc1,-9.4%
15,Cc1ccc(S(=O)(=O)N(Cc2ccccc2Cl)C(=O)N2CCN(C)CC2)cc1,9.99%
16,COc1cc(C)c(Cl)cc1S(=O)(=O)NCCN1CCOCC1,17.5%
17,CCN(CC(=O)NCc1ccc(Cl)cc1)C(=O)CNS(=O)(=O)c1ccc(NC(C)=O)cc1,28.3%
18,CCOc1ccc(OCC(=O)c2c(O)c3ccccc3oc2=O)cc1,-6.17%
19,Cc1ccc(C2CC(c3cccs3)=NN2C(=O)CCl)cc1 (centres unmarked),12.8%
20,COc1ccc(Cl)cc1C1=CC(=O)C[C@H](c2ccc(F)cc2)C1,5.92%
21,COC(=O)c1ccc(CNC(=O)c2ccc3c(c2)OCCO3)cc1,11.4%
22,COC(=O)c1c(NC(=O)CSc2ncnc3c2cnn3-c2ccccc2Cl)sc2c1CCCC2,11.3%

row,Structure (SMILES),"hERG current change (%, negative = inhibition) at 1uM"
1,CCOC(=O)C1CCN(C(=O)CNC(=O)c2nn(-c3ccc(OC)cc3OC)c(=O)c3ccccc23)CC1,20.6%
2,O=C(Nc1ccccc1[N+](=O)[O-])C1=C(O)CCn2c1nc1ccccc12,25.9%
3,CCc1ccc(NC(=O)CSc2nnc(Cc3cccn3C)n2-c2ccc(F)cc2)cc1,-1.58%
4,O=C(N/N=C/c1ccc2c(c1)OCO2)c1cccc(NC(=O)c2ccccc2Cl)c1,10.3%
5,COc1ccc(C)cc1S(=O)(=O)N(CC(=O)NC1CCCC1)c1ccc(F)cc1,1.64%
6,Cn1ccs/c1=N\S(=O)(=O)c1ccc(Br)cc1,18.8%
7,O=C(COC(=O)/C=C/c1ccco1)NCc1ccc(Cl)cc1,1.97%
8,O=C(CSc1nnc(Nc2ccccc2F)s1)c1cc2ccccc2o1,5.99%
9,Cc1c(NC(=O)CN2C(=O)NC3(CCCC3)C2=O)c(=O)n(-c2ccccc2)n1C,10.1%
10,COc1ccc(OC)c(NC(=O)CN(C)CCOc2ccc(Br)cc2)c1,11.5%
11,COc1ccc(Oc2nc(C)cc(C)c2S(=O)(=O)c2ccc(C)cc2)cc1,7.49%
12,N#Cc1c(NC(=S)NC(=O)C2CCCC2)sc2c1CCCCC2,10.1%
13,CSc1nnc(C)c(=O)n1COC(=O)COc1ccccc1F,15.2%
14,COc1ccc(Cl)cc1N(C)C(=O)CCc1nc(-c2ccc(C)cc2)no1,5.49%
15,Cc1c(Cl)cccc1NC(=S)NCCc1ccc(C(F)(F)F)cc1,11.6%
16,Cc1ccc(CNC(=O)c2cc3c(=O)n(C)c4ccccc4c3n2C)o1,3.02%
17,CN(Cc1cccc(Cl)c1Cl)C(=O)c1cccc(S(=O)(=O)N2CCN(Cc3ccccc3)CC2)c1,1.71%
18,Cc1ccc(S(=O)(=O)N2CCCCC2)c2nsnc12,15.3%
19,CN1C(C(=O)NCc2cccc(Br)c2)CC2Cn3c(nc4cc5ccccc5cc43)C21 (centres unmarked),-3.5%
20,CC/C(=N\NC(=O)CSCc1ccccc1Cl)c1ccc2c(c1)OCCO2,9.29%
21,COCCN(C(=O)COC(=O)Cc1coc2cc(C)ccc12)c1c(N)n(Cc2ccccc2)c(=O)[nH]c1=O,0.373%
22,C/C(CCc1ccccc1)=N\NC(=O)c1ccccc1[N+](=O)[O-],17.7%

# Source: paper PMC4336329 (PLoS ONE, 2015)
